From PubChem BioAssay AID1671193 (National Center for Advancing Translational Sciences (NCATS), 2021)
The whole screen tested about 150,000 compounds, of which about 180 (0.12%) were called active. Inconclusive means that the source gave no clear call. Such entries were picked first, then a sample of the others. The call rests on the fitted dose curve; in most records, active means well fitted cell-killing curve with a large enough effect; inconclusive means small, poorly fitted or top-dose-only effect, or effect the other way; inactive means flat fitted curve, though single readings scatter. Potencies beside an inconclusive call are fits to weak or partial responses and may not hold up.

assay: GF-AFC viability counterscreen for inhibitors of alpha-synuclein gene (SNCA) expression; conditions: HEK-293-SNCA-luc viability, GF-AFC fluorescence, 24 h; activity change, negative = cytotoxicity: at 57.1 µM (top of the series) unless noted; further: nearly all actives have a fitted effect of over 30% in size;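 on activity change, negative = cytotoxicity: 0% = DMSO-treated cells and -100% = medium-only wells without cells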
How it was run: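 Cytotoxicity counterscreen: after 24 h compound treatment of genome-edited SNCA-luciferase HEK-293 cells, live-cell protease substrate GF-AFC read by fluorescence after 30 min; activity scaled between DMSO (0%) and medium-only (-100%), curves Hill-fitted.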
Potency means the concentration at half of the fitted maximal effect; tags describe the fitted curve by direction and shape.

| SMILES | Potency | activity change, negative = cytotoxicity |
| --- | --- | --- |
| Cc1ccc(-c2csc(/C(C#N)=C/c3ccccc3Cl)n2)cc1 | inconclusive: 28.2 µM [rising, partial curve, poor fit] |  |
| O=C(Nc1ccc(Cl)cc1Cl)c1c[nH]c2cccnc12 | inconclusive: 10 µM [cytotoxic, single point] |  |
| Cc1cc(C)c(CNC(=O)c2nc(-c3cccc(O)c3)cc3[nH]ccc23)c(=O)[nH]1 | inconclusive: 31.6 µM [cytotoxic, single point] |  |
| Cn1ccc(NC(=O)[C@@H]2C[C@H](c3ccc(F)cc3)N(Cc3ccccc3Cl)C2)n1 | inconclusive: 56.2 µM [cytotoxic, single point] |  |
| COc1ccc(C(=O)N2CCC3(CCCN(CC(C)C)C3)CC2)cc1 | inconclusive: 7.08 µM [cytotoxic, single point] |  |
| CC(C)N1CCC(Cc2ccc(CCNC(=O)c3cccs3)cc2)CC1 |  | inactive: -15% |
| O=C1CSC2(CCN(S(=O)(=O)c3ccc(F)cc3)CC2)N1Cc1ccco1 | inconclusive: 3.98 µM [rising, full curve, poor fit] |  |
| COc1ccc(NC(=O)c2ccc(C(=N)N(C)C)cc2)c(C(=O)Nc2ccc(Cl)cn2)c1 | inconclusive: 23.8 µM [cytotoxic, partial curve, poor fit] |  |
| O=C(CC1CCOC2(CCN(C(=O)c3cccc(F)c3)CC2)C1)NCc1ccncc1 (centres undefined) |  | inactive: 0.878% |
| O=C(c1ccc(F)cc1)N1CCC2(CC1)OCC(C(=O)N1CCOCC1)N2C(=O)c1cccc(F)c1 (centres undefined) | inconclusive: 2.24 µM [cytotoxic, partial curve, poor fit] |  |
| CCCN1C(C(=O)c2ccccc2)=C(OC(=O)COc2ccccc2)c2ccccc2S1(=O)=O | inconclusive: 12.6 µM [cytotoxic, partial curve, poor fit] |  |
| C=CCNC(=O)[C@@H]1Cc2cn(Cc3cccnc3)c3cccc(c23)[C@H](CC(C)C)N1 | inconclusive: 35.5 µM [cytotoxic, single point] |  |
| O=C1NCc2ccccc2CC12CCN(Cc1cc(O)ccc1[N+](=O)[O-])C2 (centres undefined) | inconclusive: 15.8 µM [cytotoxic, partial curve, poor fit] |  |
| CC1CCN(C(=O)Cn2cc(SCC(=O)NCc3ccccc3Cl)c3ccccc32)CC1 | inconclusive: 5.01 µM [cytotoxic, full curve] |  |
| O=C(N[C@H]1[C@H](O)[C@H](O)C[C@@H]1c1ccc(C(F)(F)F)cc1)c1ccc2c(c1)OCCO2 | inconclusive: 14.1 µM [cytotoxic, full curve, poor fit] |  |
| O=C(NCc1ccc(F)cc1F)C1CCCCN1Cc1ccc(-c2ccsc2)cc1 (centres undefined) |  | inactive: -5.17% |
| CCCCc1nn(CC(=O)N2CCC(c3ccccc3)CC2)c(=O)n1CC |  | inactive: -0.63% |
| COc1ccc(OC)c(NC(=O)N2CCc3nc(-c4ccccc4)[nH]c3C2)c1 | inconclusive: 8.91 µM [cytotoxic, partial curve, poor fit] |  |
| COc1cccc(NC(=O)Nc2cccc(-c3ccc(N4CCOCC4)nn3)c2)c1 | inconclusive: 17.8 µM [cytotoxic, partial curve, poor fit] |  |
| COc1ccc(C)cc1NC(=O)Cn1nc2n(c1=O)CCCC2 | inconclusive: 7.08 µM [rising, single point] |  |

| SMILES | Potency | activity change, negative = cytotoxicity |
| --- | --- | --- |
| COc1cccc(-c2ccc(CN3CCCC(NC(=O)c4ccc(Cl)nc4)C3)cc2)c1 (centres undefined) | inconclusive: 25.1 µM [cytotoxic, single point] |  |
| CC(C)n1c(=N)c(C(=O)NCc2cccnc2)cc2c(=O)n3ccccc3nc21 | inconclusive: 31.6 µM [rising, partial curve] |  |
| O=C(NC1CCN(c2nccc(Nc3ccccc3F)n2)CC1)c1ccccc1 |  | inactive: -1.88% [at 12.5 µM] |
| COc1ccc2[nH]cc(CCNc3nc(-c4ccc(C(=O)N(C)C)cc4)nc4ccccc34)c2c1 | inconclusive: 10 µM [cytotoxic, partial curve, poor fit] |  |
| COc1ccc(-c2cc(N3CCCC(NC(=O)c4ccc(Br)o4)C3)n[nH]2)cc1 (centres undefined) | inconclusive: 10 µM [cytotoxic, partial curve, poor fit] |  |
| CCc1ccccc1-n1nc(-c2c(C)nc3scc(CC(=O)NCc4ccccc4)n3c2=O)cc1C |  | inactive: 2.37% |
| CCC(C)n1c(=N)c(C(=O)NCc2ccccc2)cc2c(=O)n3cc(C)ccc3nc21 (centres undefined) | inconclusive: 2.82 µM [rising, partial curve, poor fit] |  |
| O=c1cc(N2CCOCC2)oc2c(Nc3cccc(Cl)c3)nccc12 | inconclusive: 10 µM [cytotoxic, single point] |  |
| CC1=C[C@@H](CN(C)CCN(C)C)[C@H](C(C)C)C[C@H]1Cc1nnc(-c2ccccc2)o1 | inconclusive: 31.6 µM [cytotoxic, single point] |  |
| COc1cccc(Cn2c(=O)c(-c3cc(F)cc(F)c3)nc3cnc(N4CCN(C)CC4)nc32)c1 | inconclusive: 10 µM [rising, partial curve, poor fit] |  |
| O=C(NCc1ccccn1)c1nc2sccn2c1-c1ccncc1 |  | inactive: -6.97% |
| COCCOC1CCN(C(=O)Nc2cccc(C)c2)CC1 |  | inactive: 12.1% [at 12.5 µM] |
| COCCNC(=O)[C@@H]1C[C@H](Oc2ccccc2)CN1C(=O)c1ccc(OC)nc1OC | inconclusive: 0.631 µM [cytotoxic, full curve, poor fit] |  |
| CC(C)CS(=O)(=O)c1oc(-c2ccc(F)cc2)nc1S(=O)(=O)c1ccccc1 | active: 4.47 µM |  |
| CNC(=O)c1c(C)nc2n1CCC(Nc1ccccc1C)C2 (centres undefined) |  | inactive: 4.12% [at 87.6 µM] |
| O=C(NCc1ccccc1Cl)C1CCN(S(=O)(=O)c2ccc3c(c2)CCCN3C(=O)C2CCC2)CC1 | inconclusive: 12.6 µM [cytotoxic, partial curve] |  |
| Cc1ccc2nc(/C(C#N)=C/c3cccc(Br)c3)[nH]c2c1 | inconclusive: 28.2 µM [rising, single point] |  |
| CC(C)C(=O)NCC12CCCC=C1N(CC1CC1)C(=O)CC2 (centres undefined) | inconclusive: 2.82 µM [rising, full curve, poor fit] |  |
| COc1ccccc1CN1Cc2cc(NC(=O)c3ccc(OC)c(OC)c3)ccc2OC(C)C1=O (centres undefined) | inconclusive: 11.2 µM [cytotoxic, partial curve, poor fit] |  |
